This passage reports Kd results from article PMC8623395, “Virtual Screening and Molecular Dynamics Simulation Study of Influenza Polymerase PB2 Inhibitors” (Molecules, 2021).

SMILES strings stand for the structures.

This test has as its target PB2 CBD of influenza A/WSN/1933(H1N1) (Influenza A virus, UniProt P03427). The test can be described thus: Surface plasmon resonance (SPR) analysis. Background: In SPR one partner is held on a chip, and binding of the other changes the refractive index at the surface.
As a reminder, the Kd is the free concentration of one partner at which half of the binding sites on the other are occupied at equilibrium, for simple one-to-one binding. `O=C(O)c1cccc([C@@H](c2ccc(O)c(C(=O)O)c2)C(Cl)(Cl)Cl)c1` [Str5776] gave a Kd of 178 nM.
With `O=C(Nc1nc(-c2ccc(O)cc2)c(CCc2ccccc2)s1)c1cc(O)c(O)c(O)c1` [Str1614] the figure was 81 nM.
`O=C(CCCCC(=O)c1ccccc1C(=O)O)c1ccccc1` [Str6318]: the Kd came out at 1530 nM.
With `COc1c2oc3c(OC)ccc(C(=O)N[C@@H](Cc4ccccc4)C(=O)O)c3nc-2cc(N)c1=O` [Str7374] the figure was 910 nM.
With `CCCCOc1ccc(-c2csc(Nc3ccc(CCC(=O)O)cc3)n2)cc1Cl` [Str1916] the figure was 917 nM.
